Reference: patent EP4329743B1 (priority 2021, dated 2022)

Assays:
pathogenic microbes = tested on: pathogenic microbes
Description: Upon playing in the garden by digging in the ground non-disinfected hands of a child were contacted with sterile blood agar plates containing ethyl pyruvate (middle) ethyl lactate (right) and medium (left) for 30 seconds and incubated for 48h at 37°C.

[1] = tested on: primary human skin fibroblasts
[2] = in vivo; cited from earlier work

Row | Structure (SMILES) | killing of microbes on blood agar plates (pathogenic microbes) | toxicity on primary human fibroblasts [1] | vitality of primary human fibroblasts [1] | proliferation of DHT-activated LNCaP cells (LNCaP cells) | proliferation of non-activated LNCaP cells (LNCaP cells) | side effects in clinical studies [2]
1 | CCOC(=O)C(C)O (centres unmarked) [ethyl lactate, reference compound] | not effective |  |  |  |  | 
2 | CCOC(=O)C(C)=O [ethyl pyruvate, Ethyl pyruvate] | killing most pathogenic microbes | not toxic over the concentration range investigated | does not significantly influence vitality | inhibited | not inhibited | has not shown any side effects
3 | CC(=O)C(=O)O [pyruvate, reference compound] |  |  |  | no inhibitory effect |  | 
